# Data published in PubChem BioAssay (Tox21).
# Inconclusive means that the source gave no clear call. Such entries were picked first, then a sample of the others. For part of these data: Where the call is inconclusive, the potency comes from a doubtful curve fit. The source made the active and inactive calls. Unless noted, the call rests on the fitted dose curve; in most records, active means well fitted curve in the direction sought with a large enough effect in the repeat runs; inconclusive means weak or mixed curves; inactive means no such curve, though single readings can be large; an effect the other way counts as inactive or inconclusive. Non-standard residues stand in square brackets, D forms with d. Residues, ends and D or L forms follow the SMILES beside them. pGlu = O=C1CC[C@@H](C(=O)O)N1
# Experiments:
# [1] = qHTS RealTime-Glo MT Cell Viability Assay in HepG2 cells - 16 hour (AID 1224885); further: nearly all actives have a fitted effect of over 50% in size; further: potency means the concentration at half of the fitted maximal effect
# Outline: (§1)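 Cells + NanoLuc/prosubstrate dispensed (600 cells/well) → 5 h at 37 C/5% CO2 → compounds in DMSO transferred → 40 h incubation at 37 C, luminescence read at 0, 8, 16, 24, 32, 40 h.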
# [2] = qHTS assay to identify small molecule HDAC inhibitors (AID 1259364); further: potency means the concentration at half of the fitted maximal effect;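 further: wild-type HCT-116 cells with endogenous class I/II HDAC activity; nearly all actives have a fitted effect of over 45% in size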
# Outline: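 Screening used wild-type human colon HCT-116 cells incubated overnight, dosed with compounds for 2 hours, and assayed with a homogeneous luminogenic HDAC I/II reagent for 30 minutes at room temperature.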
# [3] = qHTS RealTime-Glo MT Cell Viability Assay in HEK293 cells - 24 hour (AID 1224886); further: nearly all actives have a fitted effect of over 50% in size; further: potency means the concentration at half of the fitted maximal effect
# Outline: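 Tox21 10K qHTS, HEK293, 600 cells/well, RealTime-Glo reagent co-dispensed with cells; 5 h preincubation, compound by pintool, 37 C, luminescence at 0–40 h.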
# [4] = qHTS assay to identify small molecule phospholipidosis (PLD) inducers (AID 1259344; active means well fitted curve in the direction sought with a large enough effect; inconclusive means small, poorly fitted or top-dose-only effect, or another doubt; inactive means no such curve, though single readings can be large; an effect the other way counts as inactive or inconclusive; further: potency means the concentration at half of the fitted maximal effect); conditions: HepG2 phospholipidosis, LipidTOX Red imaging, 24 h; series mostly up to 38.3 µM
# Outline: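 Image-based: LipidTOX Red pit count/intensity per well and per cell; HepG2, 24 h compound at 37 C, PFA fixation, Hoechst counterstain.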
# [5] = qHTS assay to identify small molecule antagonists of the androgen receptor (AR) signaling pathway using the MDA cell line in the presence of 0.5 nM R1881 - cell viability counter screen (AID 1259242); further: potency means the concentration at half of the fitted maximal effect; nearly all actives have a fitted effect of over 45% in size
# Outline: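 Concentration-response screen of compounds for toxicity in MDA-kb2 reporter cells: 16 hr at 37C with 0.5 nM R1881, endpoint live-cell protease fluorescence measured in the reporter wells.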
# [6] = qHTS assay to identify small molecule agonists of the sonic hedgehog signaling (Shh) pathway - cell viability counter screen (AID 1259366); further: nearly all actives have a fitted effect of over 50% in size; further: potency means the concentration at half of the fitted maximal effect
# Outline: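 Fluorescence from CellTiter-Fluor reports live cells in this counter screen. NIH/3T3-derived Gli1-Luc reporter cells receive test compounds for 24hr at 37C; reagent goes in at 23hr.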
# [7] = qHTS assay to identify small molecule antagonists of the sonic hedgehog signaling (Shh) pathway - cell viability counter screen (AID 1259367); further: potency means the concentration at half of the fitted maximal effect; nearly all actives have a fitted effect of over 55% in size
# Outline: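 Tox21 library chemicals were tested on a Gli1-Luc NIH/3T3 clone (2,000 cells/well) stimulated by conditioned medium; viability was quantified as fluorescence from CellTiter-Fluor reagent added at 23 hr.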
# [8] = qHTS RealTime-Glo MT Cell Viability Assay in HepG2 cells - 0 hour (AID 1224889); further: nearly all actives have a fitted effect of over 50% in size
# Outline: as §1
# [9] = qHTS RealTime-Glo MT Cell Viability Assay in HEK293 cells - 8 hour (AID 1224887); further: nearly all actives have a fitted effect of over 50% in size; further: potency means the concentration at half of the fitted maximal effect
# Outline: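 HEK293 + NanoLuc + prosubstrate, 600 cells/well; 5 h, 37 C/5% CO2; compound 23 nL in DMSO by pintool; 37 C; luminescence read at 0, 8, 16, 24, 32 and 40 h time points.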
# [10] = target: Androgen receptor (Homo sapiens) (UniProt P10275); experiment: qHTS assay to identify small molecule antagonists of the androgen receptor (AR) signaling pathway using the MDA cell line in the presence of 0.5 nM R1881 (AID 1259243); further: nearly all actives have a fitted effect of over 50% in size; further: potency means the concentration at half of the fitted maximal effect
# Chain of UniProt P10275 (P10275 whole entry, looked up): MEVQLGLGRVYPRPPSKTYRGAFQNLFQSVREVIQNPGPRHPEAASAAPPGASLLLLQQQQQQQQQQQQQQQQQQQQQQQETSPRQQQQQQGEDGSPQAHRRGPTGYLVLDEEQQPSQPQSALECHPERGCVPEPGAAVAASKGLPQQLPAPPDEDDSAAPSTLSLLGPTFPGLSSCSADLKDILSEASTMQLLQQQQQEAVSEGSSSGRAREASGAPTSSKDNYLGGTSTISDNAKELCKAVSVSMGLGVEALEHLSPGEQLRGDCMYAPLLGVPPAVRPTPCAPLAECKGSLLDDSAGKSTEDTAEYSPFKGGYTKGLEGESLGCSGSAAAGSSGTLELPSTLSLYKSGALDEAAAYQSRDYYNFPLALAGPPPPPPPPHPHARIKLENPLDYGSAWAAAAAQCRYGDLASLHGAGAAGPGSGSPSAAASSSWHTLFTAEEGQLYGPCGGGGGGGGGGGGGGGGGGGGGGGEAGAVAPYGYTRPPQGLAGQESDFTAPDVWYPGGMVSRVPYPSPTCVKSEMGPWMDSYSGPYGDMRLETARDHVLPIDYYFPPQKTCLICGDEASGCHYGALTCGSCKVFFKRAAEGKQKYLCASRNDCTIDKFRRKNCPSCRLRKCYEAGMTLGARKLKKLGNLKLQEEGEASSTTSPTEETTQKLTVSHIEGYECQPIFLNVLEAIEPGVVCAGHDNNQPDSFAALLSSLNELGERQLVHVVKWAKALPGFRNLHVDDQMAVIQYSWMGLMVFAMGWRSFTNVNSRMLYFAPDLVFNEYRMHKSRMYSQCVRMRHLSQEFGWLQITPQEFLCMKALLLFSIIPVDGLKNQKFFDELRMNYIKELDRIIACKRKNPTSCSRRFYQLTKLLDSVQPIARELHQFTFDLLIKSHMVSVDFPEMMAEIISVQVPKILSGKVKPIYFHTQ
# Outline: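 With R1881 held at 0.5 nM (final), compound effects on MMTV-luciferase expression in MDA-kb2 cells were scored by luminescence after a 16 hr, 37C incubation.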
# [11] = qHTS assay to identify small molecule antagonists of the estrogen receptor alpha (ER-alpha) signaling pathway using the BG1 cell line in the presence of 0.1 nM 17-beta-estradiol - cell viability counter screen (AID 1259241); further: potency means the concentration at half of the fitted maximal effect; nearly all actives have a fitted effect of over 40% in size
# Outline: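 CellTiter-Fluor read (30 min, 37C) on ER-alpha/ERE-luc VM7Luc4E2 cells; 22 hr compound treatment; agonist 0.1 nM E2 final; same-well multiplex.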
# [12] = target: Estrogen receptor (Homo sapiens) (UniProt P03372); experiment: qHTS assay to identify small molecule antagonists of the estrogen receptor alpha (ER-alpha) signaling pathway using the BG1 cell line in the presence of 0.1 nM 17-beta-estradiol (AID 1259244)
# Chain of UniProt P03372 (P03372 whole entry, looked up): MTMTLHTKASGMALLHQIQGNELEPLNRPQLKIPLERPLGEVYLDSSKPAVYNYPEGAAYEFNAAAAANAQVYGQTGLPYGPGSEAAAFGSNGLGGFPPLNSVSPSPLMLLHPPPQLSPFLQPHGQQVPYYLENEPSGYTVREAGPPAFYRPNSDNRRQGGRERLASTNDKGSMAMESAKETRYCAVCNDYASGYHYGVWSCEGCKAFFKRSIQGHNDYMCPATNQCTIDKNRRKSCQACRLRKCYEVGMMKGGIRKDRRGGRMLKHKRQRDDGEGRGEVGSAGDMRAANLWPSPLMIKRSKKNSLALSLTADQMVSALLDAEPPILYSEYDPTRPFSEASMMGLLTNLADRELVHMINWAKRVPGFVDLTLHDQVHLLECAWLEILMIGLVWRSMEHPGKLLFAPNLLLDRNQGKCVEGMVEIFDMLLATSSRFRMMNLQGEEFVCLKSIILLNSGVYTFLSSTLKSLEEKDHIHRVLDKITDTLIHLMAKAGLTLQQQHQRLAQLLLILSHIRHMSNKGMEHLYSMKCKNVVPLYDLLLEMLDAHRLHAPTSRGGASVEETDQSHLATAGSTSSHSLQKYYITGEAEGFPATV
# Outline: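 Compounds were tested against 0.1 nM (final) 17beta-estradiol in VM7Luc4E2 cells, which express full-length ER-alpha and an ERE-luciferase reporter; luminescence was recorded following 22 h exposure.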
# [13] = A CellTox Green Cytotoxicity Assay to monitor cytotoxicity in HEK293 cells - 16 hour (AID 1224888); further: nearly all actives have a fitted effect of over 35% in size
# Outline: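 Tox21 screen in HEK293: membrane-impermeant cyanine dye fluoresces on binding dead-cell DNA; compound pinned 5 h post-seeding, plates held at 37 C, signal read repeatedly through 40 h.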
# Tags describe the fitted curve by direction and shape.
structure (smiles),measurement,setting,value
NCCN,Potency,[1],"inconclusive: 54.9 µM [cytotoxic, partial curve, poor fit]"
same,Potency,[2],"inconclusive: 68.6 µM [inhibitor, partial curve, poor fit]"
CCN(CC)C(=O)Nc1ccc(OCC(O)CNC(C)(C)C)c(C(C)=O)c1 (stereo not drawn),Potency,[1],inactive
C[C@]12CCC(=O)C=C1[C@@H]1C[C@@H]1[C@H]1[C@@H]3[C@@H]4C[C@@H]4[C@@]4(CCC(=O)O4)[C@@]3(C)CC[C@@H]12,Potency,[1],inactive
same,Potency,[3],"inconclusive: 23.9 µM [cytotoxic, single point]"
same,Potency,[4],active: 11.2 µM
CC[N+]1(CC)CCC(=C(c2ccccc2)c2ccccc2)C1C (stereo not drawn),Potency,[3],"inconclusive: 26.8 µM [cytotoxic, partial curve, poor fit]"
CCCCCCCCCCCCCCCC/C=C/C1CC(=O)OC1=O (stereo not drawn),Potency,[1],inactive
CCNC(=O)[C@@H]1CCCN1C(=O)[C@H](CCCN=C(N)N)NC(=O)[C@H](CC(C)C)NC(=O)CNC(=O)[C@H](Cc1ccc(O)cc1)NC(=O)[C@H](CO)NC(=O)[C@H](Cc1c[nH]c2ccccc12)NC(=O)[C@H](Cc1cnc[nH]1)NC(=O)[C@@H]1CCC(=O)N1 ([pGlu]HWSYGLRP-NHEt),Potency,[1],inactive
same,Potency,[2],inactive
Cc1oc2c(NC(=O)c3c(Cl)cccc3Cl)cccc2c1C(C)(C)O,Potency,[1],"inconclusive: 34.7 µM [cytotoxic, partial curve]"
same,Potency,[5],inconclusive: 17.2 µM [cytotoxic]
O=[N+]([O-])c1cc[n+]([O-])cc1,Potency,[1],"inconclusive: 54.9 µM [cytotoxic, partial curve, poor fit]"
same,Potency,[6],"inconclusive: 68.6 µM [cytotoxic, single point]"
same,Potency,[7],active: 61.1 µM
FC(F)(Cl)C(F)(Cl)Cl,Potency,[3],inactive
CCCCOC(=O)CC#N,Potency,[3],inactive
Cc1ccc(N(C)C)cc1,Potency,[1],inactive
same,Potency,[8],inactive
CC(C)(c1ccc(Oc2ccc(N)cc2)cc1)c1ccc(Oc2ccc(N)cc2)cc1,Potency,[1],"inconclusive: 49 µM [cytotoxic, single point]"
same,Potency,[3],"inconclusive: 21.9 µM [cytotoxic, partial curve]"
same,Potency,[9],"inconclusive: 21.9 µM [cytotoxic, partial curve]"
same,Potency,[8],inactive
same,Potency,[5],inconclusive: 61.1 µM [cytotoxic]
same,Potency,[10],inconclusive: 30.6 µM [inhibitor]
Fc1c(F)c(F)c(Br)c(F)c1F,Potency,[1],inactive
CC(C)C[C@H]1C(=O)N2CCC[C@H]2[C@]2(O)O[C@](NC(=O)[C@@H]3C=C4c5cccc6[nH]c(Br)c(c56)C[C@H]4N(C)C3)(C(C)C)C(=O)N12,Potency,[1],active: 13.2 µM
same,Potency,[3],"inconclusive: 6.59 µM [cytotoxic, full curve]"
same,Potency,[9],"inconclusive: 6.59 µM [cytotoxic, partial curve, poor fit]"
same,Potency,[6],"inconclusive: 16.4 µM [cytotoxic, partial curve]"
same,Potency,[7],"inconclusive: 6.54 µM [cytotoxic, full curve]"
CCOC(=O)C(C)Oc1ccc(Oc2nc3ccc(Cl)cc3o2)cc1 (stereo not drawn),Potency,[1],"inconclusive: 17.4 µM [cytotoxic, partial curve]"
same,Potency,[10],inactive
CCOC(=O)[C@@H](C)Oc1ccc(Oc2nc3ccc(Cl)cc3o2)cc1,Potency,[1],active: 8.71 µM
same,Potency,[2],"inconclusive: 27.3 µM [inhibitor, partial curve]"
COc1cc([N+](=O)[O-])ccc1N,Potency,[1],inactive
same,Potency,[11],"inconclusive: 27.3 µM [cytotoxic, partial curve]"
same,Potency,[5],inconclusive: 54.5 µM [cytotoxic]
same,Potency,[2],"inconclusive: 68.6 µM [inhibitor, partial curve, poor fit]"
same,Potency,[6],active: 54.5 µM
CCCCOC(=O)C(C)Oc1ccc(Oc2ccc(C(F)(F)F)cn2)cc1 (stereo not drawn),Potency,[3],"inconclusive: 43.6 µM [cytotoxic, partial curve, poor fit]"
same,Potency,[9],"inconclusive: 24.5 µM [cytotoxic, full curve]"
CC(C)(O)Cc1ccccc1,Potency,[3],"inconclusive: 49 µM [cytotoxic, partial curve, poor fit]"
same,Potency,[9],inactive
CCCCNc1ccc(C(=O)OCCOCCOCCOCCOCCOCCOCCOCCOCCOC)cc1,Potency,[3],"inconclusive: 10.7 µM [cytotoxic, partial curve]"
same,Potency,[8],inactive
same,Potency,[12],active: 8.41 µM
same,Potency,[7],"inconclusive: 7.5 µM [cytotoxic, single point]"
N#C/C(=C1\SCC(c2ccccc2Cl)S1)n1ccnc1 (stereo not drawn),Potency,[3],"inconclusive: 21.3 µM [cytotoxic, partial curve]"
same,Potency,[9],"inconclusive: 21.3 µM [cytotoxic, partial curve]"
same,Potency,[10],"inconclusive: 23.7 µM [inhibitor, partial curve]"
CC(O)CC(C)(C)O (stereo not drawn),Potency,[3],"inconclusive: 21.4 µM [rising, full curve, poor fit]"
same,Potency,[13],inactive
same,Potency,[6],inactive
CCNC(=O)N1CCN(CCCC(c2ccc(F)cc2)c2ccc(F)cc2)CC1,Potency,[3],active: 16.9 µM
same,Potency,[11],active: 26.6 µM
same,Potency,[5],inconclusive: 26.6 µM [cytotoxic]
same,Potency,[12],active: 18.8 µM
same,Potency,[6],"inconclusive: 16.8 µM [cytotoxic, partial curve]"
CCCCOc1cc(C(=O)NCCN(CC)CC)c2ccccc2n1,Potency,[3],"inconclusive: 23.9 µM [cytotoxic, partial curve]"
same,Potency,[9],"inconclusive: 10.7 µM [cytotoxic, partial curve]"
same,Potency,[4],"inconclusive: 11.2 µM [activator, single point]"
same,Potency,[6],"inconclusive: 18.8 µM [cytotoxic, partial curve]"
